The results in this text go back to the antibiotic and cytotoxicity screens of Wong et al. (2023).

The test system of one test is HSkMC. Nature of the test: cytotoxicity call (relative viability < 0.9). The note with it: 10 µM.
For the next test, the system named is HepG2. The experiment in a line: cytotoxicity call (relative viability < 0.9). Particulars: 10 µM.
The next test relates to S. aureus RN4220. The experiment in a line: growth inhibition call (relative growth <= 0.2). The note with it: 50 µM.

The other results are listed elsewhere or left out.

Consider `C[C@H]1CN([C@@H](C)CO)C(=O)c2cccc(NC(=O)CCCCCC(=O)Nc3ccccc3N)c2O[C@@H]1CN(C)Cc1ccc(Oc2ccccc2)cc1`, for which the cytotoxicity call with HSkMC and in the test on HepG2 was “inactive” in each case. Besides, the growth inhibition call in the test with S. aureus RN4220 is “inactive”.

On to `C[C@@H]1CN([C@@H](C)CO)C(=O)c2cc(NC(=O)C3CCCCC3)ccc2O[C@@H]1CN(C)Cc1ccc(C(=O)Nc2ccccc2N)cc1`, for which the cytotoxicity call in the test on HSkMC and in the test with HepG2 was “inactive” in each case. The growth inhibition call with S. aureus RN4220 was “inactive”.

Turning to `COc1ccc(S(=O)(=O)Nc2ccc3c(c2)C(=O)N([C@@H](C)CO)C[C@@H](C)[C@@H](CN(C)Cc2ccc4c(c2)OCO4)OCCCC[C@@H](C)O3)cc1`, the cytotoxicity call with HSkMC and in the test on HepG2 was “inactive” in each case. For the same molecule, in the test on S. aureus RN4220, the growth inhibition call was “inactive”.

As for `Cc1noc(C)c1NC(=O)Nc1ccc2c(c1)CC(=O)N([C@@H](C)CO)C[C@@H](C)[C@@H](CN(C)Cc1ccc(C(=O)Nc3ccccc3N)cc1)O2`, the cytotoxicity call with HSkMC and in the test with HepG2 was “inactive” each time. Further, in the test with S. aureus RN4220, the growth inhibition call was “inactive”.

`C[C@H](CO)N1C[C@H](C)[C@H](CN(C)C(=O)c2ccncc2)OCCCC[C@H](C)Oc2ccc(NS(=O)(=O)c3ccc(Cl)cc3)cc2C1=O`: the cytotoxicity call in the test on HSkMC and in the test on HepG2 was “inactive” in each case. In addition, in the test with S. aureus RN4220, the growth inhibition call is “inactive”.

For `O=C(C[C@@H]1CC[C@@H]2[C@H](COC[C@@H](O)CN2S(=O)(=O)c2ccc(F)cc2)O1)N[C@@H]1CCN(Cc2ccccc2)C1`, the cytotoxicity call in the test with HSkMC and in the test with HepG2 was “inactive” throughout. Besides, the growth inhibition call in the test on S. aureus RN4220 is “inactive”.

On to `COc1ccc(CN(C)C[C@@H]2Oc3ccc(NC(=O)Nc4cccc5ccccc45)cc3CC(=O)N([C@H](C)CO)C[C@H]2C)cc1`, for which the cytotoxicity call with HSkMC and in the test on HepG2 was “inactive” in each case. For the same molecule, the growth inhibition call with S. aureus RN4220 is “inactive”.

With `COc1cccc(S(=O)(=O)N(C)C[C@@H]2Oc3ncc(C#CC(C)C)cc3C(=O)N([C@@H](C)CO)C[C@@H]2C)c1`, the cytotoxicity call in the test on HSkMC and with HepG2 was “inactive” in each case. Moreover, in the test on S. aureus RN4220, the growth inhibition call is “inactive”.

As to `O=C(C[C@H]1C[C@H]2c3cc(NC(=O)c4ccc5c(c4)OCO5)ccc3O[C@H]2[C@@H](CO)O1)NCc1ccccn1`, the cytotoxicity call in the test on HSkMC and in the test on HepG2 was “inactive” each time. Further, in the test on S. aureus RN4220, the growth inhibition call is “inactive”.

On to `Cc1ccc(C(=O)c2ccc(CC(=O)[O-])n2C)cc1.[Na+]`, for which the cytotoxicity call in the test on HSkMC and with HepG2 was “inactive” each time. For the same molecule, the growth inhibition call in the test with S. aureus RN4220 is “inactive”.

For `Cc1noc(C)c1NC(=O)Nc1ccc2c(c1)C(=O)N([C@H](C)CO)C[C@@H](C)[C@H](CN(C)Cc1ccc(Cl)c(Cl)c1)O2`, the cytotoxicity call in the test with HSkMC and in the test with HepG2 was “inactive” each time. For the same molecule, the growth inhibition call with S. aureus RN4220 was “inactive”.

Regarding `CN1CCN(C(=O)C[C@H]2CC[C@H]3[C@H](COc4ccc(NC(=O)C5CCCCC5)cc4C(=O)N3C)O2)CC1`, the cytotoxicity call in the test with HSkMC and in the test on HepG2 was “inactive” throughout. Besides, in the test on S. aureus RN4220, the growth inhibition call was “inactive”.

Take `C[C@@H]1CN([C@H](C)CO)C(=O)c2cc(NC(=O)c3ccccc3)ccc2O[C@@H](C)CCCCO[C@H]1CN(C)S(=O)(=O)c1ccc(F)cc1`: the cytotoxicity call in the test with HSkMC is “inactive”. The cytotoxicity call in the test on HepG2 was “active”. Besides, the growth inhibition call in the test with S. aureus RN4220 is “inactive”.

Regarding `COc1ccc(S(=O)(=O)N(C)C[C@@H]2Oc3ccc(NC(=O)Nc4c(C)noc4C)cc3C(=O)N([C@H](C)CO)C[C@@H]2C)cc1`, the cytotoxicity call in the test on HSkMC and with HepG2 was “inactive” throughout. Moreover, the growth inhibition call in the test with S. aureus RN4220 is “inactive”.

With `COc1cccc(C#Cc2cnc3c(c2)C(=O)N([C@H](C)CO)C[C@@H](C)[C@H](CN(C)C(=O)C2CCC2)O3)c1`, the cytotoxicity call with HSkMC and with HepG2 was “inactive” each time. For the same molecule, the growth inhibition call with S. aureus RN4220 was “inactive”.

`O=C(C[C@H]1C[C@H]2c3cc(NS(=O)(=O)c4ccc(F)cc4)ccc3O[C@H]2[C@@H](CO)O1)NC1CCCC1`: the cytotoxicity call in the test on HSkMC and in the test with HepG2 was “inactive” each time. The growth inhibition call with S. aureus RN4220 was “inactive”.

Take `CCN1C(=O)S[C@@H](CC(=O)O)C1=O`: the cytotoxicity call with HSkMC and with HepG2 was “inactive” in each case. The growth inhibition call in the test on S. aureus RN4220 was “inactive”.

Consider `C[C@H]1CN([C@@H](C)CO)C(=O)c2cc(NC(=O)c3ccncc3)ccc2O[C@H]1CN(C)Cc1ccncc1`, for which the cytotoxicity call in the test with HSkMC and with HepG2 was “inactive” each time. In the test on S. aureus RN4220, the growth inhibition call is “inactive”.

Take `COc1ccc(NC(=O)Nc2ccc3c(c2)C(=O)N([C@H](C)CO)C[C@@H](C)[C@H](CN(C)Cc2ccncc2)OCCCC[C@H](C)O3)cc1`: the cytotoxicity call in the test on HSkMC and in the test on HepG2 was “inactive” each time. For the same molecule, the growth inhibition call in the test on S. aureus RN4220 is “inactive”.

Turning to `C[C@H]1CN([C@@H](C)CO)C(=O)Cc2cc(NS(=O)(=O)c3ccccc3)ccc2O[C@H]1CN(C)S(=O)(=O)c1ccc(F)cc1`, the cytotoxicity call with HSkMC and in the test on HepG2 was “inactive” in each case. For the same molecule, the growth inhibition call in the test with S. aureus RN4220 is “inactive”.

Regarding `COc1cccc(NC(=O)N(C)C[C@H]2Oc3cc(C#Cc4ccncc4)ccc3S(=O)(=O)N([C@H](C)CO)C[C@@H]2C)c1`, the cytotoxicity call in the test on HSkMC was “inactive”. Further, the cytotoxicity call in the test with HepG2 was “active”. Moreover, in the test with S. aureus RN4220, the growth inhibition call is “inactive”.

Consider `CC(C)NC(=O)N(C)C[C@@H]1Oc2c(NC(=O)Nc3ccc4c(c3)OCO4)cccc2C(=O)N([C@@H](C)CO)C[C@@H]1C`, for which the cytotoxicity call with HSkMC and in the test on HepG2 was “inactive” in each case. Further, the growth inhibition call in the test on S. aureus RN4220 is “inactive”.

For `C[C@@H]1CN([C@@H](C)CO)C(=O)c2cccc(NC(=O)CCCCCC(=O)Nc3ccccc3N)c2O[C@@H]1CN(C)S(C)(=O)=O`, the cytotoxicity call in the test with HSkMC and in the test with HepG2 was “inactive” throughout. Besides, in the test with S. aureus RN4220, the growth inhibition call was “inactive”.

Take `C[C@@H]1CCCCO[C@H](CN(C)C(=O)CCCN(C)C)[C@@H](C)CN([C@@H](C)CO)C(=O)c2cc(NC(=O)Nc3ccc(C(F)(F)F)cc3)ccc2O1`: the cytotoxicity call in the test on HSkMC and with HepG2 was “inactive” in each case. Besides, in the test on S. aureus RN4220, the growth inhibition call is “inactive”.

`C[C@@H]1CN([C@@H](C)CO)C(=O)c2cc(NS(=O)(=O)c3ccccc3)ccc2O[C@H]1CN(C)Cc1ccc(-c2ccccc2)cc1`: the cytotoxicity call with HSkMC was “inactive”. In the test with HepG2, the cytotoxicity call was “active”. In the test on S. aureus RN4220, the growth inhibition call is “inactive”.

With `C[C@@H]1CCCCO[C@H](CN(C)Cc2ccc(C(F)(F)F)cc2)[C@@H](C)CN([C@H](C)CO)C(=O)c2cc(NS(=O)(=O)c3ccc(Cl)cc3)ccc2O1`, in the test on HSkMC (human skeletal muscle cells), the cytotoxicity call was “inactive”. Besides, in the test on HepG2, the cytotoxicity call is “active”. In the test on S. aureus RN4220, the growth inhibition call was “inactive”.
